The assay has as its target T1, Nuclear receptor subfamily 0 group B member 1 (Homo sapiens, UniProt P51843).
T1 sequence (P51843 whole entry): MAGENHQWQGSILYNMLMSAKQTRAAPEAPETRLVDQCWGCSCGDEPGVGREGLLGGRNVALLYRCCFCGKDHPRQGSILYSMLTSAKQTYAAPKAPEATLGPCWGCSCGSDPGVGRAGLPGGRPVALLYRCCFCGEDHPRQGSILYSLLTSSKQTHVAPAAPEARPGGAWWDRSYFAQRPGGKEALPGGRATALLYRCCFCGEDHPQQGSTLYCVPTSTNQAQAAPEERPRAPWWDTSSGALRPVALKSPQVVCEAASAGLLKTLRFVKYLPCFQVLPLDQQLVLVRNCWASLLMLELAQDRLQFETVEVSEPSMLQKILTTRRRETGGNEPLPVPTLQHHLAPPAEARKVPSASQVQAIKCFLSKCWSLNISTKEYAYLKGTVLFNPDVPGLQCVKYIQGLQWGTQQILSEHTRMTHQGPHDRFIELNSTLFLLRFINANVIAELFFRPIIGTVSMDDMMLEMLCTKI
The assay is classed as functional, cell-based.

Calls of active or inactive are those of the source. Rule as the data show it: active = IC50 of 10 µM or less and inactive = more. Some results are limits rather than exact numbers.
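Also: HEK293T cells transfected with SF-1 and DAX-1 plus StAR promoter luciferase reporter.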

Usually IC50 stands for the midpoint of a concentration-inhibition curve. `CCOC(=O)NC1CCc2cc(OC)c(OC)c(OC)c2-c2ccc(OC)c(=O)cc21` (stereo unspecified): the IC50 was active: > 30.9 nM.

These data come from ChEMBL document CHEMBL1201862, “PubChem BioAssay data set” (2004).
